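Five compound concentrations were applied to cells in 96-well plates for 48 hours; endpoints were derived by simple linear interpolation of the resulting dose-response curve. GI50: concentration for 50% inhibition of growth.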 The source made the active and inactive calls. Cut-off read from the data, not from the text of the source: active = GI50 up to about 1.1 µM and inactive = higher. Square brackets hold non-standard residues; d marks the D form. Peptide text beside a SMILES is read from it. 2Nal = N[CH](Cc1ccc2ccccc2c1)C(=O)O
Each molecule was assayed on NCI-H322M (assay: NCI-60 cell line screen, 48 h).

Row | SMILES | GI50
1 | CCCCc1c2c(nc3c1CCc1cc4cc5c(nc4nc1-3)-c1nc3c(c(CCCC)c1CC5)CCC/C3=C\c1ccccc1)/C(=C/c1ccccc1)CCC2 | inactive: > 100 µM
2 | Oc1cc(-c2ccccc2)nc2c(S)cccc12 | inactive: > 100 µM
3 | O=[N+]([O-])c1ccc(N2CCC(CCCC3CCN(c4ccc([N+](=O)[O-])cc4[N+](=O)[O-])CC3)CC2)c([N+](=O)[O-])c1 | inactive: 15.6 µM
4 | c1ccc2c(c1)ccc1ncccc12 | inactive: > 100 µM
5 | OC(C/C=N/Nc1ccccc1)(C(F)(F)Cl)C(F)(F)Cl | inactive: > 10 µM
6 | CCOC(OC1=C(C#N)CCCC1)C(CC)[Se]c1ccccc1 (configuration not stated) | inactive: > 100 µM
7 | O=c1[nH]nc(-c2ccccc2)n1/N=C/c1ccccc1O | inactive: 79.4 µM
8 | CC1NOC(=O)C1/N=N/c1ccccc1Cl (configuration not stated) | inactive: > 100 µM
9 | O=c1c(-c2ccccc2Cl)coc2cc(F)ccc12 | inactive: 30.3 µM
10 | N#Cc1nc(NC(=O)c2ccccc2)sc1N | inactive: > 10 µM
11 | Cc1ccc(NC(=O)CC2SC(Nc3ccc(Cl)cc3)=NC2=O)cc1C (configuration not stated) | inactive: 24 µM
12 | COc1ccc(NC(=O)CC(=O)N2N=C(N(CCC#N)c3ccccc3Cl)CC2c2ccccc2)cc1 (configuration not stated) | inactive: > 100 µM
13 | CC(C)(C)OC(=O)NCCCCC(NC(=O)OCc1ccccc1)C(N)=O (configuration not stated) | inactive: > 100 µM
14 | CC(Oc1ccc(OCC2CCCCC2)cc1)C(=O)O (configuration not stated) | inactive: > 100 µM
15 | O=C1OCCC1(Cc1ccc(Cl)cc1)Cc1ccc(Cl)cc1 | inactive: > 100 µM
16 | COC12OCCN(CCO)C1=CC(=O)C1(C)N=NC(C)C12 (configuration not stated) | inactive: > 100 µM
17 | Cc1ccc(S(=O)(=O)NC(=O)OC23COCN2COC3)cc1 | inactive: > 100 µM
18 | CCCCCCCCCCN(CCCCCCCCCC)C(=O)COc1c2cc(C(C)(C)C)cc1Cc1cc(C(C)(C)C)cc(c1OCC(=O)N(CCCCCCCCCC)CCCCCCCCCC)Cc1cc(C(C)(C)C)cc(c1OCC(=O)N(CCCCCCCCCC)CCCCCCCCCC)Cc1cc(C(C)(C)C)cc(c1OCC(=O)N(CCCCCCCCCC)CCCCCCCCCC)C2 | inactive: 18.6 µM
19 | CCOc1ccc(-c2oc(/C=N/NS(=O)(=O)c3ccc(C)cc3)c([N+](=O)[O-])c2-c2ccc(OCC)cc2)cc1 | inactive: 23.2 µM
20 | Cc1ccc2ccc(-c3ccccc3)c3c2c1C(=O)c1ccccc1C3=O | inactive: > 100 µM
21 | O=C(CCCCCCCCCCc1ccccc1)C1=C(O)CC(O)CC1=O (configuration not stated) | inactive: 94.4 µM

Row | SMILES | GI50
22 | CC(=O)OC1CC[C@@]2(C)C(=CC[C@@H]3[C@@H]2CC[C@]2(C)Nc4c(cnn4-c4ccc(F)cc4)C[C@@H]32)C1 (some centres not stated) | inactive: 14 µM
23 | O=C1c2cccc3cc([N+](=O)[O-])cc(c23)C(=O)N1CCNCCNCCNCCN1C(=O)c2cccc3cc([N+](=O)[O-])cc(c23)C1=O | active: 0.0074 µM
24 | CC(C)=CCC/C(C)=C\CC/C(C)=C/CO | inactive: 45.4 µM
25 | CCOC(=O)C1(C(=O)OCC)C[C@@H](C)[C@@H](O)C1 | inactive: > 100 µM
26 | O=C1/C(=C\c2cccc(Oc3ccccc3)c2)SC(c2ccccc2)N1c1ccccc1Cl (configuration not stated) | inactive: 46.3 µM
27 | CCCCc1c(C(=O)OC(C)(C)C)cc(C#Cc2cc(C(=O)OC(C)(C)C)c(CCCC)c(C(=O)OC(C)(C)C)c2)cc1C(=O)OC(C)(C)C | inactive: > 100 µM
28 | OC1CCCCCCCCCCC1[S+]1CCCC1.O[B-](F)(F)F (configuration not stated) | inactive: > 100 µM
29 | CC(C)OP(=O)(CN(C)/C(F)=N\C(F)(F)F)OC(C)C | inactive: > 100 µM
30 | C=CCN(c1cc(OC)c2[nH]cc(C)c2c1[N+](=O)[O-])S(C)(=O)=O | inactive: > 100 µM
31 | CO/N=C1\CC(C)N2C(=O)C(C(C)C)NC(=O)C(NC(=O)c3c4nc5c(C(=O)NC6C(=O)NC(C(C)C)C(=O)N7C(C)CC(O)C7C(=O)N(C)CC(=O)N(C)C(C(C)C)C(=O)OC6C)ccc(C)c5oc-4c(C)c(=O)c3N)C(CO)OC(=O)C(C)N(C)C(=O)CN(C)C(=O)C12 (configuration not stated) | active: 1.05 µM
32 | COC(=O)C(COC(C)=O)NC(=O)/C=C/c1ccc(O)c(OC(C)=O)c1 (configuration not stated) | inactive: > 100 µM
33 | CC(C)C[C@H](NC(=O)[C@H](Cc1ccccc1)NC(=O)c1cnccn1)B(O)O [BORTEZOMIB] | active: < 0.0138 µM
34 | NC1=NCCC1(c1ccccc1)c1ccccn1 (configuration not stated) | inactive: > 100 µM
35 | Cc1nc2c(=O)[nH]c(=O)nc-2n(CCO)c1C | inactive: > 100 µM
36 | C=C(C)[C@@H]1CC=C(CO)CC1 [PERILLYL ALCOHOL] | inactive: 292 µM
37 | CCOC(=O)CC1=N/C(=N/C(=N)N[N+](=O)[O-])SC1 | inactive: > 100 µM
38 | [N-]=[N+]=NC(c1ccccc1)(c1ccccc1)c1ccccc1 | inactive: 17.1 µM
39 | CC(=O)Nc1cc(C(=O)Nc2cc(C(=O)Nc3cc(C(=O)Nc4cc(C(=O)Nc5cc(C(=O)NCCC(=O)NCCCN(C)C)n(C)c5)n(C)c4)n(C)c3)n(C)c2)n(C)c1 | inactive: > 100 µM
40 | COC(=O)[C@]1(Cc2ccc3ccccc3c2)CCCCCCN1C(=O)c1ccccc1 | inactive: > 38.2 µM
41 | O=C(Nc1ccc2[nH]c3c(-c4ccccc4)nccc3c2c1)c1ccccc1[N+](=O)[O-] | inactive: 7.46 µM
42 | CCc1nnc(S)n1/N=C\c1ccc(-c2ccccc2Cl)o1 | inactive: 73.1 µM

Row | SMILES | GI50
43 | Cc1c(O)c(OC2OC(CO)C(O)C(O)C2O)cc2c1CC[C@@H]1C2(C)C(=O)C[C@]2(C)[C@@H]([C@@](C)(O)C(O)/C=C/C(C)(C)O)[C@H](O)C[C@@]12C (some centres not stated) | inactive: > 100 µM
44 | C/C(=N\NC(=O)c1cccnc1)c1cccc(/C(C)=N/NC(=O)c2cccnc2)n1.CC(=O)[O-].CC(=O)[O-].[Zn+2] | inactive: 3.05 µM
45 | CC(C)(Cl)C(Br)CC/C(CBr)=C(/Cl)CCl.CC(C)(Cl)C(Br)CC/C(CBr)=C(\Cl)CCl (configuration not stated) | inactive: 5.66 µM
46 | N#CC(/C(=N/NC(N)=S)C(=O)Nc1cccc(Cl)c1)c1ccccc1 (configuration not stated) | inactive: > 100 µM
47 | N=C(N)NS(=O)(=O)c1ccc(NCCc2c3ccccc3nc3ccccc23)cc1 | inactive: > 100 µM
48 | Cc1nnc(N/N=C(/C(=O)C(C#N)c2ccc(Cl)cc2)C(C#N)c2ccc(Cl)cc2)n1N (configuration not stated) | inactive: 16.3 µM
49 | O=C1CCCc2c1c1c(n2Cc2ccccc2)-c2ccccc2C1=O | inactive: 10.7 µM
50 | O=c1[nH]c(Nc2ccc(Br)c(C(F)(F)F)c2)nc2[nH]cnc12 | inactive: > 100 µM
51 | Cc1cc2c3c(ccc4[nH]cc(c43)CN2c2ccc(NS(C)(=O)=O)cc2)n1 | inactive: 12.6 µM
52 | COC(=O)C1=CS/C(=C2\S[C@@H]3[C@H](S2)[C@H]2C=C[C@@H]3C2)S1 | inactive: > 100 µM
53 | Cc1c(-c2cc3n(n2)C(c2cccs2)C(C#N)=C(c2ccccc2)N3)c(=O)n(-c2ccccc2)n1C (configuration not stated) | inactive: > 100 µM
54 | CCNC(=O)C1CCCN1C(=O)C(CCCN=C(N)N)NC(=O)C(CC(C)C)NC(=O)C(Cc1c[nH]c2ccccc12)NC(=O)C(Cc1ccc(O)cc1)NC(=O)C(CO)NC(=O)C(Cc1c[nH]c2ccccc12)NC(=O)C(Cc1c[nH]cn1)NC(=O)C1CCC(=O)N1 (configuration not stated) | inactive: > 100 µM
55 | O=C1O/C(=C\c2ccccc2)N(c2ccccc2)C1=O | inactive: > 100 µM
56 | O=C(NCCc1ccccn1)c1ccc2cc(C(=O)N3CC(CCl)c4ccc([N+](=O)[O-])cc43)[nH]c2c1 (configuration not stated) | inactive: > 60.4 µM
57 | CC(C)(C)COC1C2(OCCO2)C2CCC1(C)C2(C)C (configuration not stated) | inactive: > 100 µM
58 | CCCC(=O)Nc1cc(/C=C/C(=O)N2CC(CCl)c3c2cc(OCc2ccccc2)c2[nH]cc(C)c32)n(C)c1 (configuration not stated) | active: 0.138 µM
59 | O=C(O)C1CC2CC(=O)C1C2 (configuration not stated) | inactive: > 100 µM
60 | NC1CC(=O)c2ccccc21 (configuration not stated) | inactive: > 100 µM
61 | NS(=O)(=O)c1ccc(NC(=O)N/N=C/c2ccccc2O)cc1 | inactive: 90.2 µM
62 | CNc1cc(OCc2ccccc2)c(OC)cc1C(=O)N1CCC[C@H]1CO | inactive: > 100 µM
63 | O=C(/C=C\Nc1ccccc1O)C(F)(F)F | inactive: > 100 µM

Row | SMILES | GI50
64 | COc1ccc(C2CC(c3c(O)ccc4ccccc34)=NN2c2ccc([N+](=O)[O-])cc2[N+](=O)[O-])cc1OC (configuration not stated) | inactive: 23.9 µM
65 | O=[Se](O)O | inactive: 1.6 µM
66 | COc1cc(/C=C(\NC(=O)c2ccccc2)c2nc3c(O)nc(S)nc3[nH]2)cc(OC)c1OC | inactive: > 100 µM
67 | CCCCCCCCCCCCC(=O)OC(c1cnco1)c1nc(C(O)CC(O)C(O)C(C)O)co1 (configuration not stated) | active: 0.893 µM
68 | Cn1c(=O)n(CC(Br)CBr)c(=O)n(CC(Br)CBr)c1=O (configuration not stated) | inactive: 28.5 µM
69 | Fc1cccc(C2ON=C(c3ccccc3)N2C23CC4CC(CC(C4)C2)C3)c1 (configuration not stated) | inactive: > 10 µM
70 | Cc1ccc(/N=N/C(=NNC(=O)c2ccc(C)cc2)c2ccc(N(C)C)cc2)cc1 | inactive: 29.9 µM
71 | CC(CCOc1c2ccoc2cc2oc(=O)ccc12)C1=CC(=O)C(C)(C)O1 (configuration not stated) | inactive: > 100 µM
72 | O=S(=O)(c1ccccc1)C1CN2OC1(S(=O)(=O)c1ccccc1)CC2c1ccc(Br)cc1 (configuration not stated) | inactive: > 100 µM
73 | CC(NC(=O)C(N)Cc1ccccc1)C(=O)NC(Cc1ccc(O)cc1)C(=O)NC(Cc1c[nH]c2ccccc12)C(=O)NC(CCCCN)C(=O)NC(C(=O)NC(C)C(=O)NC(Cc1ccc2ccccc2c1)C(N)=O)C(C)C (configuration not stated) (H-FAYWKVA[2Nal]-NH2; configuration not given here) | inactive: > 12.5 µM
74 | CSc1nc(-c2ccc(C)cc2)c(C#N)c(=O)[nH]1 | inactive: > 100 µM
75 | O=c1c2cc(Br)ccc2nc(CCl)n1-c1ccc(O)c([N+](=O)[O-])c1 | inactive: 16.3 µM
76 | CN(C)Cc1cc(C(=O)/C=C/c2cccc(Cl)c2)cc(CN(C)C)c1O | inactive: 7.87 µM
77 | COc1ccc2c(c1)CCC/C2=N\NS(=O)(=O)c1c(C)cc(C)cc1C | inactive: 31 µM
78 | O=C(CC(NC(=O)OCc1ccccc1)C(=O)NC1Cc2ccccc2C1=O)OCc1ccccc1 (configuration not stated) | inactive: > 100 µM
79 | CCOC(=O)c1c[nH]c2cc3c(cc2c1=O)CCS3(=O)=O.CCOC(=O)c1c[nH]c2ccc3c(c2c1=O)S(=O)(=O)CC3 | inactive: > 100 µM
80 | N#CCCN(CCC#N)C(=O)c1cccc(C(=O)N(CCC#N)CCC#N)c1 | inactive: > 100 µM
81 | CSC1=N/C(=C\c2ccccc2)C(=O)N1CN1CCOCC1 | inactive: > 100 µM
82 | CCC(=O)N/N=C(\C=C\c1cccc(O)c1)c1sc(Nc2ccc(C)cc2[N+](=O)[O-])nc1C | inactive: > 100 µM
